Measured values published in publication PMC6919601, “Identification of Plasmodium dipeptidyl aminopeptidase allosteric inhibitors by high throughput screening” (PLoS ONE, 2019).
Several values for one entry are separate records, joined by “and”; a condition that tells them apart may be missing. Equal entries are not always repeated. Screen size: about 110,000 compounds; about 230 (0.21%) showed an effect of 50% or more. Some of the results follow.

target: DPAP1 (Plasmodium falciparum, UniProt Q8IIJ9); test: primary screen, percent inhibition; read by cleavage of a fluorogenic dipeptide substrate; higher = more effect of the substance; parameters: species or system P. falciparum D10 trophozoite lysates; single well
Sequence (Q8IIJ9 whole entry, looked up): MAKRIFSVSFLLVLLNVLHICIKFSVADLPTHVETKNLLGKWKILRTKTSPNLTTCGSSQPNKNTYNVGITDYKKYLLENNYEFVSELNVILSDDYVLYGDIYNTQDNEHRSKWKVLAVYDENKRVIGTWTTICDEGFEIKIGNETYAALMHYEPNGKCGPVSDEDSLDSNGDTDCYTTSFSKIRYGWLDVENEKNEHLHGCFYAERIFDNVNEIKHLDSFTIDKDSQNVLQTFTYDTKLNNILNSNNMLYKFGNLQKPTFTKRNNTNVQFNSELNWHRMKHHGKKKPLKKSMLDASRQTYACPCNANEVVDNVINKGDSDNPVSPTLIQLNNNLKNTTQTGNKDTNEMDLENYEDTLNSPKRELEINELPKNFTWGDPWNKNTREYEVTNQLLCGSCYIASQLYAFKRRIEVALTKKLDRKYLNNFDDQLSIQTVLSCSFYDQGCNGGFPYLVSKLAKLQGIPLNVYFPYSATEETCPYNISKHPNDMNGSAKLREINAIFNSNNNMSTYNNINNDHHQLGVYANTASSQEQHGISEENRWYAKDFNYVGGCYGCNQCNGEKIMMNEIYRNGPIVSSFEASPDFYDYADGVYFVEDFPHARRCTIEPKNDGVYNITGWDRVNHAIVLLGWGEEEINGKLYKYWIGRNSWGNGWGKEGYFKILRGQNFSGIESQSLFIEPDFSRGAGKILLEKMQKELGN
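Also: 30 min substrate incubation versus DMSO and 10 µM JCP410 controls.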

SMILES	% Inhibition @ 10 uM
C=CCn1c2ccccc2n2nc(C)c(C(C)=O)c12	4.88%
CCCOc1ccc(C2=CSC3=NCCN23)cc1	-0.833%
CC1=C(C(=O)Nc2ccccc2)C(c2cccnc2)C(C#N)=C(SCC(=O)Nc2ccc(F)cc2)N1 (stereo not shown)	-0.305%
CC(C)(C)OC(=O)N[C@@H](Cc1cc(I)c(N)c(I)c1)C(=O)NCC#N	7.39%
Cc1cc(Oc2nc3c(C)cccn3c(=O)c2/C=C(\C#N)C(=O)N2CCCCC2)ccc1Cl	-1.43%
COc1cc(Cl)cc2c1OC1(C=C2)c2ccccc2N(C)c2ccccc21	-4.31%
COCc1[nH]nc2c1C(c1ccc(F)cc1)C(C#N)=C(N)O2 (stereo not shown)	0.385%
COCCNC(=O)c1cc(-c2ccc(Cl)c(Cl)c2)on1	-7.85%
Cc1ccc2c(c1)C(c1ccccc1)N(C(=O)c1ccccc1)CC(=O)N2 (stereo not shown)	-1.66%
CCCO/C(O)=C1/C(C)=NC2=C(C(=O)CCC2)C1c1ccc(CC)cc1 (stereo not shown)	3.18%
O=C(NO)c1ccc(C(=O)N(C2CCCCC2)C2CCCCC2)cc1	-0.591%
CC1CCC(NC(=O)CN2C(=O)C(c3ccccc3)Oc3cccnc32)CC1 (stereo not shown)	-0.397%
Cc1cccc(-n2c(C)nc3ccccc3c2=O)n1	-7.94%
CN(Cc1ccoc1)C1CCCCC1	-4.98%
O=C(/C=C/c1ccc2c(c1)OCO2)NCCc1ccccc1	0.736% and 2.94%
CCC(=O)c1c(-c2ccccc2)nc2n(C)c3ccccc3n12	-5.23%
Cc1ccccc1-c1nc(CN2CCCC(C(=O)NC3CCCCCC3)C2)c(C)o1 (stereo not shown)	-4.95%
Cc1cc(OCC(=O)N[C@@H](C)c2ccccc2)ccc1Br	-2.85%
O=C(c1cc2ccccn2n1)N1CCN(Cc2ccccc2)CC1	-3.45%
COc1ccc(/C=C2N=C(/C=C/c3ccc(C)cc3)OC\2=O)c(OC)c1	0.0932%
O=C(CCCCC(=O)Nc1cccc(Cl)c1)Nc1cccc(Cl)c1	-4.43%
N#CC1=C(N)Oc2c(cc(Cl)c3ccccc23)C1c1cccnc1 (stereo not shown)	6.8%

SMILES	% Inhibition @ 10 uM
c1ccc(CC2CCN(Cc3ccco3)CC2)cc1	-2.56%
CS(=O)(=O)c1ccc2nc(NC(=O)COc3ccc(Cl)cc3Cl)sc2c1	-0.99%
O=c1nc(/C=C/c2ccccc2)[nH]c(=O)[nH]1	-4%
N#Cc1ccc(NC(=O)COc2ccc3ccccc3c2)cc1	-2.16%
O=C(O)C1C2CC3CC(C2)CC1(n1ncc(NC2CCCCC2)c(Cl)c1=O)C3 (stereo not shown)	5.84%
Cn1cccc1Cc1nnc(SCC(=O)N2CCCC2)n1Cc1ccccc1	-4.97%
CCO/C(O)=C1\C(CC)=NC2=C(C(=O)CC(C)(C)C2)C1c1ccc2c(c1)OCO2 (stereo not shown)	-0.999%
Cc1cc(C)c(C#N)c(SCc2ccccn2)n1	66.4%
NC(NC(=O)c1ccccc1)=C1C(=O)CCC1=O	-5%
O=C(Nc1cnc2ccccn2c1=O)NC1CCCC1	3.66%
O=C(Nc1cccc(F)c1)c1ccccc1C(=O)c1ncc[nH]1	1.04%
NC(=O)C1CCN(C(=O)CSCc2cnn(-c3ccccc3)c2-n2cccc2)CC1	-1.08%
CCOC(=O)N1CCN(c2c(N(C)C3CCCCC3)c(=O)c2=O)CC1	1.93%
CCn1c(C(=O)O)c(CNCc2ccc(Cl)cc2)c2ccc(C)cc21	0.16%
CCC1CCCCN1CCCNc1nc2ccccc2n2c(C)nnc12 (stereo not shown)	0.658%
CCN(CC)CCNc1sc(S(=O)(=O)CC)nc1S(=O)(=O)c1ccc(C)cc1	-4.26%
COc1cc(C2C3=C(O)CC(C)(C)CC3=NC(C)=C2C(=O)N2CCOCC2)cc(Cl)c1O (stereo not shown)	-6.38%
Cc1cc(Cl)ccc1OCCCC(=O)Nc1ccccn1	-2.19%
CCC(C(=O)Nc1cc(C)on1)c1nc2ccccc2o1 (stereo not shown)	-14.5%
Fc1ccc(N2CCN(C3CCN(CCc4ccccc4)CC3)CC2)cc1	1.88%
CCOCCCn1c(SCC(=O)NCc2ccc(C)cc2)nc2c(sc3ccccc32)c1=O	9.46%
O=C(NCc1ccc(F)cc1)c1ccc2snnc2c1	-7.27%

SMILES	% Inhibition @ 10 uM
COc1ccc2ccccc2c1CN1CCN(C(=O)Cc2ccccc2)CC1	0.587%
CCc1nnc(NC(=O)Cc2noc3ccccc23)s1	-3.49%
CC(=O)c1ccc(C(=O)N[C@@H](CC(C)C)C(=O)NCC#N)cc1	0.174%
CC(C)(Oc1ccc(Cl)cc1)C(=O)N1CCC(C(N)=O)CC1	1.37%
Cc1c(C(c2cccc(Cl)c2)c2c(C)n(C)n(-c3ccccc3)c2=O)c(=O)n(-c2ccccc2)n1C	2.13%
Cc1ccc(-c2c(C)sc(NC(=O)c3ccnn3C)c2C(N)=O)cc1C	-0.318%
COc1ccc(N2C(=O)N(c3ccccc3)C3CS(=O)(=O)CC32)cc1 (stereo not shown)	4.49%
COc1ccc(-c2cc(N)n(CCC#N)n2)c(OC)c1	0.708%
N#C/C(=C\c1cccs1)c1nc(-c2ccc(F)cc2)cs1	5.29%
Cc1cccc2c1-c1sc(C(=O)N3CCN(C)CC3)cc1CO2	7.82%
CCn1c(SCc2nc(-c3ccc(Cl)cc3)no2)nnc1-c1ccncc1	-0.666%
CC(C)(C)NC(=O)CSc1ccc(C(C)(C)C)cc1	-2.83%
CCCC(=O)Nc1nc(-c2ccc(F)cc2)cs1	4.83%
COc1ccc(OC)c(C2NCCc3c2[nH]c2ccccc32)c1 (stereo not shown)	-5.74%
CC(C)c1ccc(NC(=O)CN(C2CCCCC2)S(C)(=O)=O)cc1	-0.545%
O=C(NC1CCCCCC1)NC1CCCCC1	-5.35%
CC1CC(C)CN(C(=O)C2CCN(S(=O)(=O)N3CCC4(CC3)OCCO4)CC2)C1 (stereo not shown)	2.18%
O=C(NCCc1c[nH]c2ccccc12)c1noc2c1COc1ccccc1-2	91.5%
CC(C)N(C(=O)Cn1cc(SCC(N)=O)c2ccccc21)C(C)C	-1.11%
COc1ccc(Br)cc1C1CC(=O)N2CN(C)CSC2=C1C#N (stereo not shown)	58.8%
